Reference: PMC9911399, “Two distinct binding modes provide the RNA-binding protein RbFox with extraordinary sequence specificity”
Substitutions are numbered along the chain they refer to; changes in the protein carry UniProt numbers. This is one part of the list.

T1: RBFOX1 RRM (Homo sapiens, UniProt Q9NWB1 109-208)
T1 sequence: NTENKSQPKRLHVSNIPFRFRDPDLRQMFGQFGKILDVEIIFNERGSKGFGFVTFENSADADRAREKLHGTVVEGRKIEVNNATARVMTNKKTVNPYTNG

B1: UAAUCGG (DNA:RNA)
RNA: GGGAGACCGGAAUUCAGAUUGUCCUAAUCGGUUAAAUCCCGUCGUAGCCACCA
DNA 1: CAATCTGAATTCCGGTCTCCC
DNA 2: TGGTGGCTACGACGGGATT
B2: ACUUGCG (DNA:RNA)
RNA: B1 RNA with U25A, A26C, A27U, C29G, G30C
DNA 1: CAATCTGAATTCCGGTCTCCC
DNA 2: TGGTGGCTACGACGGGATT
B3: CGUCUAA (DNA:RNA)
RNA: GGGAGACCGGAAUUCAGAUUGUCCCGUCUAAUUAAAUCCCGUCGUAGCCACCA
DNA 1: CAATCTGAATTCCGGTCTCCC
DNA 2: TGGTGGCTACGACGGGATT
B4: ACAAACG (DNA:RNA)
RNA: B1 RNA with U25A, A26C, U28A, C29A, G30C
DNA 1: CAATCTGAATTCCGGTCTCCC
DNA 2: TGGTGGCTACGACGGGATT
B5: UAGUCUC (DNA:RNA)
RNA: B1 RNA with A27G, G30U, G31C
DNA 1: CAATCTGAATTCCGGTCTCCC
DNA 2: TGGTGGCTACGACGGGATT
B6: CAUCAGG (DNA:RNA)
RNA: B3 RNA with G26A, U29A, A30G, A31G
DNA 1: CAATCTGAATTCCGGTCTCCC
DNA 2: TGGTGGCTACGACGGGATT
B7: UAUAUGG (DNA:RNA)
RNA: B1 RNA with A27U, U28A, C29U
DNA 1: CAATCTGAATTCCGGTCTCCC
DNA 2: TGGTGGCTACGACGGGATT
B8: UGAUGUA (DNA:RNA)
RNA: B1 RNA with A26G, C29G, G30U, G31A
DNA 1: CAATCTGAATTCCGGTCTCCC
DNA 2: TGGTGGCTACGACGGGATT
B9: CAUACUG (DNA:RNA)
RNA: B1 RNA with U25C, A27U, U28A, G30U
DNA 1: CAATCTGAATTCCGGTCTCCC
DNA 2: TGGTGGCTACGACGGGATT
B10: GCACUAG (DNA:RNA)
RNA: B3 RNA with C25G, G26C, U27A, A31G
DNA 1: CAATCTGAATTCCGGTCTCCC
DNA 2: TGGTGGCTACGACGGGATT
B11: UUUAUAC (DNA:RNA)
RNA: B3 RNA with C25U, G26U, C28A, A31C
DNA 1: CAATCTGAATTCCGGTCTCCC
DNA 2: TGGTGGCTACGACGGGATT
B12: CAACAGU (DNA:RNA)
RNA: B1 RNA with U25C, U28C, C29A, G31U
DNA 1: CAATCTGAATTCCGGTCTCCC
DNA 2: TGGTGGCTACGACGGGATT
B13: AUCAUAC (DNA:RNA)
RNA: B3 RNA with C25A, G26U, U27C, C28A, A31C
DNA 1: CAATCTGAATTCCGGTCTCCC
DNA 2: TGGTGGCTACGACGGGATT
B14: UAGUGAC (DNA:RNA)
RNA: B1 RNA with A27G, C29G, G30A, G31C
DNA 1: CAATCTGAATTCCGGTCTCCC
DNA 2: TGGTGGCTACGACGGGATT
B15: CUGGUGA (DNA:RNA)
RNA: B3 RNA with G26U, U27G, C28G, A30G
DNA 1: CAATCTGAATTCCGGTCTCCC
DNA 2: TGGTGGCTACGACGGGATT
B16: UGGCCAC (DNA:RNA)
RNA: B3 RNA with C25U, U27G, U29C, A31C
DNA 1: CAATCTGAATTCCGGTCTCCC
DNA 2: TGGTGGCTACGACGGGATT
B17: UUCGGCC (DNA:RNA)
RNA: B1 RNA with A26U, A27C, U28G, C29G, G30C, G31C
DNA 1: CAATCTGAATTCCGGTCTCCC
DNA 2: TGGTGGCTACGACGGGATT
B18: UAGUGGA (DNA:RNA)
RNA: B1 RNA with A27G, C29G, G31A
DNA 1: CAATCTGAATTCCGGTCTCCC
DNA 2: TGGTGGCTACGACGGGATT
B19: CGGUGGG (DNA:RNA)
RNA: B1 RNA with U25C, A26G, A27G, C29G
DNA 1: CAATCTGAATTCCGGTCTCCC
DNA 2: TGGTGGCTACGACGGGATT
B20: UCGGCUA (DNA:RNA)
RNA: B1 RNA with A26C, A27G, U28G, G30U, G31A
DNA 1: CAATCTGAATTCCGGTCTCCC
DNA 2: TGGTGGCTACGACGGGATT
B21: GCUGCAU (DNA:RNA)
RNA: B3 RNA with C25G, G26C, C28G, U29C, A31U
DNA 1: CAATCTGAATTCCGGTCTCCC
DNA 2: TGGTGGCTACGACGGGATT
B22: AAUCUUG (DNA:RNA)
RNA: B3 RNA with C25A, G26A, A30U, A31G
DNA 1: CAATCTGAATTCCGGTCTCCC
DNA 2: TGGTGGCTACGACGGGATT
B23: AAGUUAU (DNA:RNA)
RNA: B3 RNA with C25A, G26A, U27G, C28U, A31U
DNA 1: CAATCTGAATTCCGGTCTCCC
DNA 2: TGGTGGCTACGACGGGATT
B24: AGUGGCU (DNA:RNA)
RNA: B3 RNA with C25A, C28G, U29G, A30C, A31U
DNA 1: CAATCTGAATTCCGGTCTCCC
DNA 2: TGGTGGCTACGACGGGATT
B25: GUUGCAA (DNA:RNA)
RNA: B3 RNA with C25G, G26U, C28G, U29C
DNA 1: CAATCTGAATTCCGGTCTCCC
DNA 2: TGGTGGCTACGACGGGATT
B26: AACAUGU (DNA:RNA)
RNA: B1 RNA with U25A, A27C, U28A, C29U, G31U
DNA 1: CAATCTGAATTCCGGTCTCCC
DNA 2: TGGTGGCTACGACGGGATT
B27: GAACCUC (DNA:RNA)
RNA: B1 RNA with U25G, U28C, G30U, G31C
DNA 1: CAATCTGAATTCCGGTCTCCC
DNA 2: TGGTGGCTACGACGGGATT
B28: GAUAAUA (DNA:RNA)
RNA: B3 RNA with C25G, G26A, C28A, U29A, A30U
DNA 1: CAATCTGAATTCCGGTCTCCC
DNA 2: TGGTGGCTACGACGGGATT
B29: CAGAGAC (DNA:RNA)
RNA: B3 RNA with G26A, U27G, C28A, U29G, A31C
DNA 1: CAATCTGAATTCCGGTCTCCC
DNA 2: TGGTGGCTACGACGGGATT
B30: GCCACGC (DNA:RNA)
RNA: B1 RNA with U25G, A26C, A27C, U28A, G31C
DNA 1: CAATCTGAATTCCGGTCTCCC
DNA 2: TGGTGGCTACGACGGGATT
B31: UUCGAAC (DNA:RNA)
RNA: B3 RNA with C25U, G26U, U27C, C28G, U29A, A31C
DNA 1: CAATCTGAATTCCGGTCTCCC
DNA 2: TGGTGGCTACGACGGGATT

target: T1, RBFOX1 RRM; test: EMSA; HiTS-Eq, 1 nM pool, 10 min; buffer printed only for the single-RNA assays: 10 mM Tris pH 7.5, 150 mM NaCl, 3.4 mM EDTA, 0.001% NP-40, 30 C; details: tags: His6 N-terminal (pET28a); label: 5' 32P
In short: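 Purified wild-type or mutant RbFox RRM at increasing concentrations was equilibrated with 1 nM of 5′-radiolabelled RNA carrying 7 randomized nucleotides for 10 min in 50 µL. Unbound RNA was separated by 8% native PAGE and sequenced. Relative association constants came from read-count changes of each RNA species compared with the control reaction, normalised to the cognate motif.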

Q: B1 was tested. Which binding signal did it give?
A: 0.00839 KA relative to UGCAUGU

Q: Which binding signal does the source give for B2 here?
A: 0.0132 KA relative to UGCAUGU

Q: Which binding signal does the source give for B3 here?
A: 0.00224 KA relative to UGCAUGU

Q: How did the binding signal turn out when B4 was run?
A: 0.0004 KA relative to UGCAUGU

Q: With B5 as the binder, how does the binding signal read?
A: 0.0162 KA relative to UGCAUGU

Q: How did the binding signal turn out when B6 was run?
A: 0.00785 KA relative to UGCAUGU

Q: For B7, which binding signal is on record?
A: 0.00259 KA relative to UGCAUGU

Q: How did the binding signal turn out when B8 was run?
A: 0.0182 KA relative to UGCAUGU

Q: How did the binding signal turn out when B9 was run?
A: 0.00506 KA relative to UGCAUGU

Q: For B10, which binding signal is on record?
A: 0.0109 KA relative to UGCAUGU

Q: How did the binding signal turn out when B11 was run?
A: 0.0021 KA relative to UGCAUGU

Q: B12 was tested. Which binding signal did it give?
A: 0.00195 KA relative to UGCAUGU

Q: With B13 as the binder, how does the binding signal read?
A: 0.00032 KA relative to UGCAUGU

Q: Which binding signal does the source give for B14 here?
A: 0.00173 KA relative to UGCAUGU

Q: Which binding signal does the source give for B15 here?
A: 0.0173 KA relative to UGCAUGU

Q: With B16 as the binder, how does the binding signal read?
A: 0.0117 KA relative to UGCAUGU

Q: Which binding signal does the source give for B17 here?
A: 0.0171 KA relative to UGCAUGU

Q: For B18, which binding signal is on record?
A: 0.00304 KA relative to UGCAUGU

Q: B19 was tested. Which binding signal did it give?
A: 0.00823 KA relative to UGCAUGU

Q: How did the binding signal turn out when B20 was run?
A: 0.0186 KA relative to UGCAUGU

Q: For B21, which binding signal is on record?
A: 0.0278 KA relative to UGCAUGU

Q: B22 was tested. Which binding signal did it give?
A: 0.00505 KA relative to UGCAUGU

Q: How did the binding signal turn out when B23 was run?
A: 0.00257 KA relative to UGCAUGU

Q: For B24, which binding signal is on record?
A: 0.0216 KA relative to UGCAUGU

Q: B25 was tested. Which binding signal did it give?
A: 0.017 KA relative to UGCAUGU

Q: How did the binding signal turn out when B26 was run?
A: 0.00671 KA relative to UGCAUGU

Q: How did the binding signal turn out when B27 was run?
A: 0.00399 KA relative to UGCAUGU

Q: For B28, which binding signal is on record?
A: 0.00856 KA relative to UGCAUGU

Q: With B29 as the binder, how does the binding signal read?
A: 0.00668 KA relative to UGCAUGU

Q: How did the binding signal turn out when B30 was run?
A: 0.0115 KA relative to UGCAUGU

Q: Which binding signal does the source give for B31 here?
A: 0.0137 KA relative to UGCAUGU
